# According to the supplement of paper PMC8728848:
# The other results are listed elsewhere or left out.
# Legend:
# Assay in all cases: glycan array binding signal (z-score within array); higher = stronger binding
# Details in all cases: glycan notation: IUPAC condensed, linker removed
# [1] = target: Gal(b1-4)GlcNAc(b1-2)[Gal(b1-4)GlcNAc(b1-6)]Man(a1-6)[GlcNAc(b1-4)][Gal(b1-4)GlcNAc(b1-2)Man(a1-3)]Man(b1-4)GlcNAc(b1-4)GlcNAc
# Summary of the method: (§1)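 Glycan array data came from 3228 arrays in the Consortium for Functional Glycomics database, and only arrays with an available protein sequence were kept. Glycan names were put into IUPAC-condensed notation, and columns mapping to the same glycan were averaged. The binding signal is a within-array Z-score, averaged across arrays of one protein sequence run at different concentrations or buffers and across linkers. A negative Z-score can be read as non-binding.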
# [2] = target: Gal(b1-4)GlcNAc(b1-2)[Gal(b1-4)GlcNAc(b1-6)]Man(a1-6)[GlcNAc(b1-4)][Gal(b1-4)GlcNAc(b1-2)[Gal(b1-4)GlcNAc(b1-4)]Man(a1-3)]Man(b1-4)GlcNAc(b1-4)[Fuc(a1-6)]GlcNAc
# Summary of the method: as §1
# [3] = target: Gal(b1-4)GlcNAc(b1-3)Gal(b1-3)GalNAc
# Summary of the method: as §1
# [4] = target: Gal(b1-4)GlcNAc(b1-3)Gal(b1-3)GlcNAc
# Summary of the method: as §1
# [5] = target: Gal(b1-4)GlcNAc(b1-3)Gal(b1-4)Glc
# Summary of the method: as §1
# [6] = target: Gal(b1-4)GlcNAc(b1-3)Gal(b1-4)GlcNAc
# Summary of the method: as §1
# [7] = target: Gal(b1-4)GlcNAc(b1-3)Gal(b1-4)GlcNAc(b1-2)Man(a1-3)[Gal(b1-4)GlcNAc(b1-3)Gal(b1-4)GlcNAc(b1-2)Man(a1-6)]Man(b1-4)GlcNAc(b1-4)GlcNAc
# Summary of the method: as §1
# [8] = target: Gal(b1-4)GlcNAc(b1-3)Gal(b1-4)GlcNAc(b1-2)Man(a1-3)[Gal(b1-4)GlcNAc(b1-3)Gal(b1-4)GlcNAc(b1-2)Man(a1-6)]Man(b1-4)GlcNAc(b1-4)[Fuc(a1-6)]GlcNAc
# Summary of the method: as §1
# [9] = target: Gal(b1-4)GlcNAc(b1-3)Gal(b1-4)GlcNAc(b1-2)[Gal(b1-4)GlcNAc(b1-3)Gal(b1-4)GlcNAc(b1-6)]Man(a1-6)[Gal(b1-4)GlcNAc(b1-3)Gal(b1-4)GlcNAc(b1-2)Man(a1-3)]Man(b1-4)GlcNAc(b1-4)GlcNAc
# Summary of the method: as §1
# [10] = target: Gal(b1-4)GlcNAc(b1-3)Gal(b1-4)GlcNAc(b1-2)[Gal(b1-4)GlcNAc(b1-3)Gal(b1-4)GlcNAc(b1-6)]Man(a1-6)[Gal(b1-4)GlcNAc(b1-3)Gal(b1-4)GlcNAc(b1-2)Man(a1-3)]Man(b1-4)GlcNAc(b1-4)[Fuc(a1-6)]GlcNAc
# Summary of the method: as §1
# [11] = target: Gal(b1-4)GlcNAc(b1-3)Gal(b1-4)GlcNAc(b1-3)Gal(b1-4)GlcNAc
# Summary of the method: as §1
# [12] = target: Gal(b1-4)GlcNAc(b1-3)Gal(b1-4)GlcNAc(b1-3)Gal(b1-4)GlcNAc(b1-2)Man(a1-3)[Gal(b1-4)GlcNAc(b1-3)Gal(b1-4)GlcNAc(b1-3)Gal(b1-4)GlcNAc(b1-2)Man(a1-6)]Man(b1-4)GlcNAc(b1-4)GlcNAc
# Summary of the method: as §1
# [13] = target: Gal(b1-4)GlcNAc(b1-3)Gal(b1-4)GlcNAc(b1-3)Gal(b1-4)GlcNAc(b1-2)Man(a1-3)[Gal(b1-4)GlcNAc(b1-3)Gal(b1-4)GlcNAc(b1-3)Gal(b1-4)GlcNAc(b1-2)Man(a1-6)]Man(b1-4)GlcNAc(b1-4)[Fuc(a1-6)]GlcNAc
# Summary of the method: as §1
# [14] = target: Gal(b1-4)GlcNAc(b1-3)Gal(b1-4)GlcNAc(b1-3)Gal(b1-4)GlcNAc(b1-2)[Gal(b1-4)GlcNAc(b1-3)Gal(b1-4)GlcNAc(b1-3)Gal(b1-4)GlcNAc(b1-6)]Man(a1-6)[Gal(b1-4)GlcNAc(b1-3)Gal(b1-4)GlcNAc(b1-3)Gal(b1-4)GlcNAc(b1-2)Man(a1-3)]Man(b1-4)GlcNAc(b1-4)[Fuc(a1-6)]GlcNAc
# Summary of the method: as §1
# [15] = target: Gal(b1-4)GlcNAc(b1-3)Gal(b1-4)GlcNAc(b1-3)Gal(b1-4)GlcNAc(b1-3)Gal(b1-4)GlcNAc(b1-2)Man(a1-3)[Gal(b1-4)GlcNAc(b1-3)Gal(b1-4)GlcNAc(b1-3)Gal(b1-4)GlcNAc(b1-3)Gal(b1-4)GlcNAc(b1-2)Man(a1-6)]Man(b1-4)GlcNAc(b1-4)GlcNAc
# Summary of the method: as §1
# [16] = target: Gal(b1-4)GlcNAc(b1-3)Gal(b1-4)GlcNAc(b1-3)Gal(b1-4)GlcNAc(b1-3)Gal(b1-4)GlcNAc(b1-2)Man(a1-3)[Gal(b1-4)GlcNAc(b1-3)Gal(b1-4)GlcNAc(b1-3)Gal(b1-4)GlcNAc(b1-3)Gal(b1-4)GlcNAc(b1-2)Man(a1-6)]Man(b1-4)GlcNAc(b1-4)[Fuc(a1-6)]GlcNAc
# Summary of the method: as §1
# [17] = target: Gal(b1-4)GlcNAc(b1-3)Gal(b1-4)GlcNAc(b1-3)Gal(b1-4)GlcNAc(b1-3)Gal(b1-4)GlcNAc(b1-2)[Gal(b1-4)GlcNAc(b1-3)Gal(b1-4)GlcNAc(b1-3)Gal(b1-4)GlcNAc(b1-3)Gal(b1-4)GlcNAc(b1-6)]Man(a1-6)[Gal(b1-4)GlcNAc(b1-3)Gal(b1-4)GlcNAc(b1-3)Gal(b1-4)GlcNAc(b1-3)Gal(b1-4)GlcNAc(b1-2)Man(a1-3)]Man(b1-4)GlcNAc(b1-4)[Fuc(a1-6)]GlcNAc
# Summary of the method: as §1
# [18] = target: Gal(b1-4)GlcNAc(b1-3)Gal(b1-4)GlcNAc(b1-3)Gal(b1-4)GlcNAc(b1-3)Gal(b1-4)GlcNAc(b1-3)Gal(b1-4)GlcNAc(b1-2)Man(a1-3)[Gal(b1-4)GlcNAc(b1-3)Gal(b1-4)GlcNAc(b1-3)Gal(b1-4)GlcNAc(b1-3)Gal(b1-4)GlcNAc(b1-3)Gal(b1-4)GlcNAc(b1-2)Man(a1-6)]Man(b1-4)GlcNAc(b1-4)GlcNAc
# Summary of the method: as §1
# [19] = target: Gal(b1-4)GlcNAc(b1-3)Gal(b1-4)GlcNAc(b1-3)Gal(b1-4)GlcNAc(b1-3)Gal(b1-4)GlcNAc(b1-3)Gal(b1-4)GlcNAc(b1-2)Man(a1-3)[Gal(b1-4)GlcNAc(b1-3)Gal(b1-4)GlcNAc(b1-3)Gal(b1-4)GlcNAc(b1-3)Gal(b1-4)GlcNAc(b1-3)Gal(b1-4)GlcNAc(b1-2)Man(a1-6)]Man(b1-4)GlcNAc(b1-4)[Fuc(a1-6)]GlcNAc
# Summary of the method: as §1
# [20] = target: Gal(b1-4)GlcNAc(b1-3)Gal(b1-4)GlcNAc(b1-3)Gal(b1-4)GlcNAc(b1-3)Gal(b1-4)GlcNAc(b1-3)Gal(b1-4)GlcNAc(b1-2)[Gal(b1-4)GlcNAc(b1-3)Gal(b1-4)GlcNAc(b1-3)Gal(b1-4)GlcNAc(b1-3)Gal(b1-4)GlcNAc(b1-3)Gal(b1-4)GlcNAc(b1-6)]Man(a1-6)[Gal(b1-4)GlcNAc(b1-3)Gal(b1-4)GlcNAc(b1-3)Gal(b1-4)GlcNAc(b1-3)Gal(b1-4)GlcNAc(b1-3)Gal(b1-4)GlcNAc(b1-2)Man(a1-3)]Man(b1-4)GlcNAc(b1-4)[Fuc(a1-6)]GlcNAc
# Summary of the method: as §1
# [21] = target: Gal(b1-4)GlcNAc(b1-3)Gal(b1-4)GlcNAc(b1-3)Gal(b1-4)GlcNAc(b1-3)Gal(b1-4)GlcNAc(b1-3)Gal(b1-4)GlcNAc(b1-3)Gal(b1-4)GlcNAc(b1-2)Man(a1-3)[Gal(b1-4)GlcNAc(b1-3)Gal(b1-4)GlcNAc(b1-3)Gal(b1-4)GlcNAc(b1-3)Gal(b1-4)GlcNAc(b1-3)Gal(b1-4)GlcNAc(b1-3)Gal(b1-4)GlcNAc(b1-2)Man(a1-6)]Man(b1-4)GlcNAc(b1-4)GlcNAc
# Summary of the method: as §1
# [22] = target: Gal(b1-4)GlcNAc(b1-3)Gal(b1-4)GlcNAc(b1-3)GalNAc
# Summary of the method: as §1
# [23] = target: Gal(b1-4)GlcNAc(b1-3)Gal(b1-4)GlcNAc(b1-3)[Gal(b1-4)GlcNAc(b1-3)Gal(b1-4)GlcNAc(b1-6)]GalNAc
# Summary of the method: as §1
binder,measurement,setting,value
PfulAvr4 2 (Pseudocercospora fuligena) (protein) HHHHHHDYKDDDDKAKPIKPFACPPKDFTTTKCQGPVDCLYANPLSCLGYIQCVCDDDACSTATPYAKSCPTGLAWVEKLKRCDGIKKSACPKKMYEGS,glycan array binding signal (z-score),[1],-0.393
same,glycan array binding signal (z-score),[2],-0.27
same,glycan array binding signal (z-score),[3],-0.334
same,glycan array binding signal (z-score),[4],-0.464
same,glycan array binding signal (z-score),[5],-0.288
same,glycan array binding signal (z-score),[6],-0.277
same,glycan array binding signal (z-score),[7],0.587
same,glycan array binding signal (z-score),[8],-0.268
same,glycan array binding signal (z-score),[9],4.76
same,glycan array binding signal (z-score),[10],-0.241
same,glycan array binding signal (z-score),[11],-0.401
same,glycan array binding signal (z-score),[12],0.129
same,glycan array binding signal (z-score),[13],-0.158
same,glycan array binding signal (z-score),[14],-0.331
same,glycan array binding signal (z-score),[15],-0.08
same,glycan array binding signal (z-score),[16],-0.233
same,glycan array binding signal (z-score),[17],-0.332
same,glycan array binding signal (z-score),[18],0.011
same,glycan array binding signal (z-score),[19],-0.044
same,glycan array binding signal (z-score),[20],-0.223
same,glycan array binding signal (z-score),[21],-0.29
same,glycan array binding signal (z-score),[22],0.111
same,glycan array binding signal (z-score),[23],0.716
